Numbering of substitutions follows the chain as printed. Numbers in names are those of the source. Results are given in words; binding and its absence hold for the method and conditions named. Some binding calls cover weakened binding; strength is not graded here. For some assays here: Sequences can lack the tags named with a protein.

The target of assay [1] is Ahp1 (untagged, in yeast cell extract) (S. cerevisiae (endogenous in yeast)) (UniProt P38013). Kind of assay: non-reducing SDS-PAGE with anti-Ahp1 Western blot (intersubunit disulfides); yeast lysates made with 10 mM NEM; sample buffer without beta-mercaptoethanol; disulfide-linked Ahp1 dimer (AID) detected by anti-Ahp1 serum; also in trx1, trx2, trr1 deletion strains and after t-BOOH (0.3-10 mM, 5 min).

Assay [2] deals with Ahp1 C120S (expressed in yeast) (S. cerevisiae) (UniProt P38013). The assay is described as above.
Assay [3] has as its target T1, His-tagged Ahp1 F58A (recombinant) (S. cerevisiae), P38013.
T1 chain: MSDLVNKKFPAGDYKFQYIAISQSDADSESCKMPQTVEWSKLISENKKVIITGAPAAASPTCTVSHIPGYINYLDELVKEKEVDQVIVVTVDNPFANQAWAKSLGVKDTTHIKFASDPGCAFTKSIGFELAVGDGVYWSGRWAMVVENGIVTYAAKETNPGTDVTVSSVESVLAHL
The assay is described as follows: SEC-MALS; proteins reduced with 50 mM DTT, exchanged into 20 mM HEPES pH 7.5, 100 mM NaCl, 1 mM TCEP, diluted to 125 uM; dimer to monomers; both purified. The conditions noted are these: remark: other sources report otherwise. For orientation: In gel filtration, larger molecules generally elute earlier.

In assay [4] the target is T2, His-tagged Ahp1 F58,95A (recombinant) (S. cerevisiae), P38013.
T2 chain: T1 chain with F95A
The assay is described as above. The following applies: remark: other sources report otherwise.

The target of assay [5] is c-Myc tagged Ahp1 (in yeast cell extract) (S. cerevisiae) (UniProt P38013). The assay is described as follows: non-reducing SDS-PAGE with anti-Ahp1 Western blot (intersubunit disulfides); yeast lysates made with 10 mM NEM; sample buffer without beta-mercaptoethanol; disulfide-linked Ahp1 dimer (AID) detected by anti-Ahp1 serum; also in trx1, trx2, trr1 deletion strains and after t-BOOH (0.3-10 mM, 5 min). In general terms: Immunoblotting shows a protein as a band on a membrane.

B1: Ahp1 (untagged, in yeast cell extract) (enzyme, UniProt P38013 1-176)
chain: T1 chain with A58F
modifications: intersubunit disulfides between Cys-31 and Cys-62 (oxidized dimer)
In the case of B1, the binding result in assay [1] is “binds”.

B2: Ahp1 C120S (expressed in yeast) (enzyme, UniProt P38013 1-176)
chain: T1 chain with A58F, C120S
modifications: intersubunit disulfides (oxidized dimer)
As for B2, the binding entry in assay [2] is “binds”.

B3: His-tagged Ahp1 F58A (recombinant), P38013 1-176 (enzyme)
chain: T1 chain
Turning to B3, in assay [3], the binding entry was “no binding (tested: 125 uM)”.

B4: His-tagged Ahp1 F58,95A (recombinant), P38013 1-176 (enzyme)
chain: T1 chain with F95A
For B4, the binding result in assay [4] is listed as “no binding (tested: 125 uM)”.

B5: c-Myc tagged Ahp1 (in yeast cell extract) (enzyme, UniProt P38013 1-176)
chain: T1 chain with A58F
modifications: intersubunit disulfides (oxidized dimer)
With B5, in assay [5], the binding result was “binds”.
